# Results published in the supplement of paper PMC12217912.
# The other results are listed elsewhere or left out. Sequences were assembled here from the parent chain. Values near 0.05 are background.
# B1: TEV protease; numbered along this chain (parent)
# chain: MGESLFKGPRDYNPISSSICHLTNESDGHTTSLYGIGFGPFIITNKHLFRRNNGTLVVQSLHGVFKVKDTTTLQQHLVDGRDMIIIRMPKDFPPFPQKLKFREPQREERICLVTTNFQTKSMSSMVSDTSCTFPSGDGIFWKHWIQTKDGQCGSPLVSTRDGFIVGIHSASNFTNTNNYFTSVPKNFMELLTNQEAQQWVSGWRLNADSVLWGGHKVFMVKPEEPFQPVKEATQL
# Variants of: B1
# Test: raw area under fraction-flipped curve 0-4 h after induction (AUC4h, not background-subtracted), DNA-recorder readout of cleavage of the substrate (dimensionless); higher = more cleavage of the substrate by the protease variant
# Conditions: temperature: 34 °C; time window: 0-4 h after rhamnose induction
# 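Note: Bxb1 expression induced with 0.2% (w/v) L-rhamnose at OD600 near 0.5, cultures sampled hourly, flipped fraction per protease–substrate barcode pair counted by paired-end Illumina sequencing.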
Variant,area with substrate FNLYFQS,area with substrate GNLYFQS,area with substrate HNLYFQS,area with substrate LNLYFQS,area with substrate MNLYFQS,area with substrate PNLYFQS,area with substrate RNLYFQS,area with substrate SNLYFQS,area with substrate WNLYFQS,area with substrate YNLYFQS,area with substrate INLYFQS,area with substrate KNLYFQS,area with substrate VNLYFQS,area with substrate NNLYFQS,area with substrate TNLYFQS,area with substrate QNLYFQS
MGESLFKGPRDYNPISSSICHLTNESDGHTTSLYGIGFGPFIITNKHLFRRNNGTLVVQSLHGVFKVKDTTTLQQHLVDGRDMIIIRMPKDFPPFPQKLKFREPQREERICLVTTNFQTKSMSSMVSDTSCTFPSGDGIFWKHWIQTKDGQCGSPLVSTRDYFIVGIHSASNFTNTNNYFTSVPKNFMELLTNQEAQQWVSGWRLNADSVLWGGHKVFMVKPEEPFQPVKEATQL [G162Y],0.0814,0.0715,0.0624,0.0582,0.0658,0.0541,0.0445,0.0856,0.0467,0.0596,,,,,,
MGESLFKGPRDYNPISSSICHLTNESDGHTTSLYGIGFGPFIITNKHLFRRNNGTLVVQSLHGVFKVKDTTTLQQHLVDGRDMIIIRMPKDFPPFPQKLKFREPQREERICLVTTNFQTKSMSSMVSDTSCTFPSGDGIFWKHWIQTKDGQCGSPLVSTRDGFIQGIHSASNFTNTNNYFTSVPKNFMELLTNQEAQQWVSGWRLNADSVLWGGHKVFMVKPEEPFQPVKEATQL [V165Q],0.0458,0.0527,0.0372,0.0724,0.0494,0.052,,0.0298,0.0468,0.0507,0.0385,0.0382,0.0535,,,
MGESLFKGPRDYNPISSSICHLTNESDGHTTSLYGIGFGPFIITNKHLFRRNNGTLVVQSLHGVFKVKDTTTLQQHLVDGRDMIIIRMPKDFPPFPQKLKFREPQREERICLVTTNFQTKSMSSMVSDTSCTFPSGDGIFWKHWIQTKDGQCGSPLVSTRDGFIVGMHSASNFTNTNNYFTSVPKNFMELLTNQEAQQWVSGWRLNADSVLWGGHKVFMVKPEEPFQPVKEATQL [I167M],0.0568,,0.0584,,,0.0596,0.0627,0.052,0.0533,0.0481,,,,,,
MGESLFKGPRDYNPISSSICHLTNESDGHTTSLYGIGFGPFIITNKHLFRRNNGTLVVQSLHGVFKVKDTTTLQQHLVDGRDMIIIRMPKDFPPFPQKLKFREPQREERICLVTTNFQTKSMSSMVSDTSCTFPSGDGIFWKHWIQTKDGQCGSPLVSTRDGFIVGIHSASNVTNTNNYFTSVPKNFMELLTNQEAQQWVSGWRLNADSVLWGGHKVFMVKPEEPFQPVKEATQL [F173V],0.0703,0.0724,0.0745,0.0447,0.0656,0.0676,,0.0508,,,0.0536,0.0645,0.0785,0.088,0.0628,
MGESLFKGPRDYNPISSSICHLTNESDGHTTSLYGIGFGPFIITNKHLFRRNNGTLVVQSLHGVFKVKDTTTLQQHLVDGRDMIIIRMPKDFPPFPQKLKFREPQREERICLVTTNFQTKSMSSMVSDTSCTFPSGDGIFWKHWIQTKDGQCGSPLVSTRDGFIVGIHSASNFTNTFNYFTSVPKNFMELLTNQEAQQWVSGWRLNADSVLWGGHKVFMVKPEEPFQPVKEATQL [N177F],0.058,0.0757,0.0723,0.0687,0.0683,0.0705,,0.073,0.0632,0.0447,0.0464,,,,0.0575,
MGESLFKGPRDYNPISSSICHLTNESDGHTTSLYGIGFGPFIITNKHLFRRNNGTLVVQSLHGVFKVKDTTTLQQHLVDGRDMIIIRMPKDFPPFPQKLKFREPQREERICLVTTNFQTKSMSSMVSDTSCTFPSGDGIFWKHWIQTKDGQCGSPLVSTRDGFIVGIHSASNFTNTNNGFTSVPKNFMELLTNQEAQQWVSGWRLNADSVLWGGHKVFMVKPEEPFQPVKEATQL [Y179G],0.0537,,0.0466,0.102,0.0657,,,0.0597,0.0545,,,,,,,
MGESLFKGPRDYNPISSSICHLTNESDGHTTSLYGIGFGPFIITNKHLFRRNNGTLVVQSLHGVFKVKDTTTLQQHLVDGRDMIIIRMPKDFPPFPQKLKFREPQREERICLVTTNFQTKSMSSMVSDTSCTFPSGDGIFWKHWIQTKDGQCGSPLVSTRDGFIVGIHSASNFTNTNNHFTSVPKNFMELLTNQEAQQWVSGWRLNADSVLWGGHKVFMVKPEEPFQPVKEATQL [Y179H],0.0638,0.0505,,0.0498,0.0614,,,0.0569,0.0557,,,0.0632,,,0.0623,
MGESLFKGPRDYNPISSSICHLTNESDGHTTSLYGIGFGPFIITNKHLFRRNNGTLVVQSLHGVFKVKDTTTLQQHLVDGRDMIIIRMPKDFPPFPQKLKFREPQREERICLVTTNFQTKSMSSMVSDTSCTFPSGDGIFWKHWIQTKDGQCGSPLVSTRDGFIVGIHSASNFTNTNNYFTSVPKNKMELLTNQEAQQWVSGWRLNADSVLWGGHKVFMVKPEEPFQPVKEATQL [F187K],0.0331,,,0.052,,,,0.0536,0.0602,0.0389,,,,,,
MGESLFKGPRDYNPISSSICHLTNESDGHTTSLYGIGFGPFIITNKHLFRRNNGTLVVQSLHGVFKVKDTTTLQQHLVDGRDMIIIRMPKDFPPFPQKLKFREPQREERICLVTTNFQTKSMSSMVSDTSCTFPSGDGIFWKHWIQTKDGQCGSPLVSTRDGFIVGIHSASNFTNTNNYFTSVPKNSMELLTNQEAQQWVSGWRLNADSVLWGGHKVFMVKPEEPFQPVKEATQL [F187S],0.0561,0.0584,0.0533,0.0591,0.0629,,,0.0339,0.0528,,0.051,0.0617,0.0619,,,0.0457
MGESLFKGPRDYNPISSSICHLTNESDGHTTSLYGIGFGPFIITNKHLFRRNNGTLVVQSLHGVFKVKDTTTLQQHLVDGRDMIIIRMPKDFPPFPQKLKFREPQREERICLVTTNFQTKSMSSMVSDTSCTFPSGDGIFWKHWIQTKDGQCGSPLVSTRDGFIVGIHSASNFTNTNNYFTSVPKNFMQLLTNQEAQQWVSGWRLNADSVLWGGHKVFMVKPEEPFQPVKEATQL [E189Q],0.0491,,0.0609,0.0615,,,,,0.0551,0.079,,,,,0.0595,
MGESLFKGPRDYNPISSSICHLTNESDGHTTSLYGIGFGPFIITNKHLFRRNNGTLVVQSLHGVFKVKDTTTLQQHLVDGRDMIIIRMPKDFPPFPQKLKFREPQREERICLVTTNFQTKSMSSMVSDTSCTFPSGDGIFWKHWIQTKDGQCGSPLVSTRDGFIVGIHSASNFTNTNNYFTSVPKNFMELRTNQEAQQWVSGWRLNADSVLWGGHKVFMVKPEEPFQPVKEATQL [L191R],0.0422,,0.0583,,0.0553,0.0707,,,0.0631,0.055,0.0562,,0.0642,,0.0418,
